# Laboratory results from PMC4336329 (PLoS ONE, 2015).
# About 2,200 (0.71%) of roughly 310,000 compounds showed an effect of 50% or more. Effects have a minus sign here. This is one part of the list.
# Biological target: human ether-à-go-go-related gene (hERG) potassium channel (human, UniProt Q12809)
# Test: primary screen, population patch clamp on CHO cells stably expressing hERG
# Chain of human ether-à-go-go-related gene (hERG) potassium channel (Q12809 whole entry, looked up): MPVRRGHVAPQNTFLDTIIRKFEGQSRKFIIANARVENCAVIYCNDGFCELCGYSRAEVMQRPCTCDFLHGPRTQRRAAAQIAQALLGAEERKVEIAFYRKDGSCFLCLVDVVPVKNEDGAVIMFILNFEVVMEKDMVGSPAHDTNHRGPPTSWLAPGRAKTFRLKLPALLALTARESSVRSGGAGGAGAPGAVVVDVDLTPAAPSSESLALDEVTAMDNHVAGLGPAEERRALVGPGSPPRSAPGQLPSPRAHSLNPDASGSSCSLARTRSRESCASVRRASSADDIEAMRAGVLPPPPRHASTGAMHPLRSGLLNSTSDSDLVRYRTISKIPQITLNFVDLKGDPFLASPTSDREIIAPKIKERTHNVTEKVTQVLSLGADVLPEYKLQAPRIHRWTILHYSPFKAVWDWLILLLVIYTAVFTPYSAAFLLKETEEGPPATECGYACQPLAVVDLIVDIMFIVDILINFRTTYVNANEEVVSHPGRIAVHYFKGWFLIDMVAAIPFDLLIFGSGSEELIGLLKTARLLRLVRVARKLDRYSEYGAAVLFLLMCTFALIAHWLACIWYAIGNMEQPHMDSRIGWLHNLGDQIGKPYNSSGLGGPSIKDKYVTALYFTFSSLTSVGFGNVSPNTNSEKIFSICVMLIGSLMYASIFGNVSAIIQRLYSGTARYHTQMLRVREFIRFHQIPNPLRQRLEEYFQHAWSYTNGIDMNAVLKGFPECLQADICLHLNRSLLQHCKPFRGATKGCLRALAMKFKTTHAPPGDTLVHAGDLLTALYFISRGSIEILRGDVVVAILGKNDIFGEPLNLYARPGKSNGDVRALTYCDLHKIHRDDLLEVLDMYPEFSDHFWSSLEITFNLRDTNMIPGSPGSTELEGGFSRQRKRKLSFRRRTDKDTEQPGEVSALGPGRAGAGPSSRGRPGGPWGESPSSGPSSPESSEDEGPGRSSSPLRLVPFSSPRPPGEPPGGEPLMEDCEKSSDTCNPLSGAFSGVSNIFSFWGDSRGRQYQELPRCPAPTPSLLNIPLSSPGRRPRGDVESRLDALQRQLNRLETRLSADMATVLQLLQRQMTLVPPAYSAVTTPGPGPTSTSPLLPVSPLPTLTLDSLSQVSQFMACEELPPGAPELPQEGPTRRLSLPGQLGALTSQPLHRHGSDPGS
row,Structure (SMILES),"hERG current change (%, negative = inhibition) at 1uM"
1,CC(C)(C)OC(=O)N1CCC[C@@H]1CO,-7.52%
2,Cc1ccc(-n2nc3c(c2NC(=O)c2cccs2)CSC3)cc1,11.3%
3,Nn1c(SCc2ccccc2)nc2c(cnn2-c2ccccc2)c1=O,0.0219%
4,Cc1cc(C(=O)NC2CCCN(Cc3ccc(Cl)cc3)C2)n(C)n1 (stereo not drawn),-11.5%
5,CC(=O)Nc1ccc(S(=O)(=O)Nc2cc(C)ccn2)cc1,11.2%
6,O=C(O)C1CCN(C(=O)COc2ccc3c4c(c(=O)oc3c2)CCC4)CC1,10.3%
7,CC1CCCC(C)N1/N=C/c1ccc(C#N)cc1 (stereo not drawn),-0.56%
8,CCc1nnc(NS(=O)(=O)c2ccc(N/C=C\C(=O)c3ccc4ccccc4c3)cc2)s1,2.9%
9,O=C(c1cc2nc(-c3ccccc3)cc(-c3ccccc3)n2n1)N1CCN(C(=O)c2ccco2)CC1,-13.6%
10,COc1ccc(SCc2noc(C(=O)NCC3CCCO3)c2C(=O)O)cc1 (stereo not drawn),10.4%
11,CCOC(=O)c1c(C)[nH]c(C)c1C(=O)COC(=O)c1nc2nccc(C)n2n1,11.4%
12,Cc1ccc(NC2CC(=O)N(c3ccc(N4CCCCC4)cc3)C2=O)cc1 (stereo not drawn),15.1%
13,O=C(CCCN1C(=O)/C(=C/c2ccccc2)SC1=S)N1CCOCC1,6.3%
14,COc1ccc(-c2ccnc3nc(N4CCN(c5ccccc5)CC4)nn23)cc1,14.9%
15,CCC(=O)Nc1cccc2cccnc12,7.92%
16,Cc1cc(C(=O)OCC(=O)N2CC(C)CC(C)C2)c(C)o1 (stereo not drawn),7.25%
17,CCN1CCCCC(=N/O)/C(=N/O)CCCC1,6.6%
18,O=C(O)CCCCCNC(=O)CCn1cnc2ccccc2c1=O,8.25%
19,Cc1n[nH]c(=O)nc1N1CCN(c2ccccc2)CC1,10.7%
20,O=C(CNC(=O)C(c1ccccc1)c1ccccc1)N/N=C\c1ccc(C(=O)O)cc1,13.2%
21,O=C(CSc1nc2nn(-c3ccccc3)c(=O)c-2c2n1CCCCC2)NCCCc1ccccc1,-8.94%
22,CCn1cc(C(=O)N2CCN(C3CCCCC3)CC2)c2cc(OC)c(OC)cc2c1=O,-2.15%

row,Structure (SMILES),"hERG current change (%, negative = inhibition) at 1uM"
1,O=C(NNC(=O)c1ccc(=O)[nH]c1)c1ccc(NS(=O)(=O)c2cccs2)cc1,3.74%
2,O=c1[nH]c2ccccc2nc1Cc1ccc([N+](=O)[O-])cc1,5.25%
3,O=C(CNC(=O)c1ccccc1F)OCCOc1cccc(Cl)c1,10%
4,COCCN(C)Cc1cn(-c2ccc(F)cc2F)nc1-c1ccccc1C,6.39%
5,COc1ccc(CCNC(=O)CSC2=Nc3ccccc3C3=NC(C(C)C)C(=O)N23)cc1OC (stereo not drawn),14.9%
6,Cc1nc(Cl)c(C(=O)NC(C)(C)C)c(C)c1Cl,7.59%
7,CCc1ccc(NC(=O)C(C)OC(=O)C2CCC(=O)N2)cc1 (stereo not drawn),17.9%
8,COc1ccc(-c2ccnc(-c3ccncc3)n2)cc1,9.75%
9,CC(C)OCC(O)CN1CC2C[C@@H](C1)Cn1c2cccc1=O (stereo partly drawn),11.6%
10,CC(=O)n1cc([C@@H]2C=C(C(=O)NCc3ccccc3)O[C@H](OCc3ccc(CO)cc3)C2)c2ccccc21,-7.87%
11,O=C(c1ccc(Cl)cc1)c1ccccc1C(=O)N1CCOCC1,7.71%
12,CCOc1cc(NC(=S)NCCCN2CCOCC2)c(OCC)cc1NC(=O)c1ccco1,-1.86%
13,COc1ccc(OC)c(NC(=O)COc2coc(CN3CCc4ccccc43)cc2=O)c1,4.25%
14,COC(=O)CN1C(=O)Nc2ccc(Br)cc2C1c1ccccc1Cl (stereo not drawn),-8.8%
15,COc1ccc(C2(C)NC(=O)N(CC(=O)c3cc(C)n(C4CC4)c3C)C2=O)cc1 (stereo not drawn),-4.87%
16,Cc1nccn1CC1CCc2c(c3ccccc3n2C)C1=O.Cl (stereo not drawn),-5.8%
17,CC(C)CNS(=O)(=O)c1ccc(CCC(=O)NCCc2ccccc2)cc1,5.19%
18,COc1ccc(S(=O)(=O)N2CCCCCC2)cc1C(=O)N(C)Cc1ccc(C)cc1,8.15%
19,COCCNC(=O)C(c1ccc(Cl)cc1)N(CCOC)C(=O)CCC(=O)Nc1nccs1 (stereo not drawn),-5.87%
20,CC(Cc1cccs1)NC(=S)Nc1ccc(F)cc1 (stereo not drawn),1.32%
21,COC(=O)c1ccccc1NC(=O)COc1ccc(S(=O)(=O)N2CCCC2)cc1C,12.3%
22,CCn1c(CSCc2ccc(C)cc2)nnc1SCC(=O)N1CCN(c2ccccc2)CC1,-11%

row,Structure (SMILES),"hERG current change (%, negative = inhibition) at 1uM"
1,CCOc1ccc(NC(=O)CC(C)S(=O)(=O)c2ccc3c(c2)NC(=O)CO3)cc1 (stereo not drawn),14.8%
2,COC(=O)CNC(=O)CSc1nc2c(sc(=S)n2-c2ccccc2)c(=O)[nH]1,9.86%
3,CN(C)S(=O)(=O)c1cccc(NC(=O)c2ccc(-n3cncn3)c([N+](=O)[O-])c2)c1,1.46%
4,Cc1c(C(=O)OCC(=O)N2CC(C)OC(C)C2)oc2ccc(Br)cc12 (stereo not drawn),0.218%
5,CCOC(=O)CSc1nc2ccccc2c(=O)n1CCN1CCOCC1,-36.8%
6,CN1C2CCC1CC(NC(=O)c1cc(Cl)cc3[nH]cnc13)C2 (stereo not drawn),6.29%
7,O=C(NC1CCCC1)c1cc(-c2ccccc2Cl)on1,12.5%
8,O=C1c2ccccc2C(=O)C12OC(c1ccccc1)C1(C(=O)c3ccccc3C1=O)C2c1ccc([N+](=O)[O-])cc1 (stereo not drawn),12.7%
9,CCOc1ccccc1C(=O)Nc1ccc(S(=O)(=O)Nc2cc(OC)nc(OC)n2)cc1,2.83%
10,CCCCN(CC)CCNC(=O)c1cc2c(=O)n(CC)c3ccccc3c2s1,1.04%
11,Cc1nc(Cl)sc1C(=O)Nc1cccc2ccccc12,-0.114%
12,O=C(Cc1ccccc1C(=O)O)Nc1cccc2ccccc12,14.9%
13,Cc1cc(Cl)c(S(=O)(=O)Nc2ccon2)cc1OCC(=O)NC1CCCCC1,8.51%
14,O=C(Cc1ccccc1)N1CCC(C(=O)N2CCN(c3ccc(F)cc3)CC2)CC1,-26.5%
15,Cc1ccc(OCc2nnc(SCC(=O)Nc3ccc4c(c3)OCO4)n2C)cc1,-15%
16,O=C(NCc1c(O)ccc2ccccc12)c1ccccc1,12.8%
17,NC(N)=NS(=O)(=O)c1ccc(NC(=S)Nc2ccc(F)cc2)cc1,9.05%
18,CC(=O)Nc1ccc(Cc2nc3c([nH]2)c(=O)n(C)c(=O)n3C)cc1,16.6%
19,Nc1nc(-c2ccc(Cl)cc2)nn1C(=O)c1cccs1,8.57%
20,COc1ccccc1C(=O)N/C(=C\c1cn(C)c2ccccc12)C(=O)NCCCN1CCOCC1,20.8%
21,CCOC(=O)c1[nH]c2ccc(OCC)cc2c1NC(=O)CN1CCC2(CC1)OCCO2,-13.3%
22,O=C(O)CNS(=O)(=O)Cc1ccccc1,17.3%

row,Structure (SMILES),"hERG current change (%, negative = inhibition) at 1uM"
1,O=C(Cc1ccccc1)N1CCN(Cc2ccc(F)cc2)CC1.O=C(O)C(=O)O,10.7%
2,Cn1c(=O)c2[nH]c(CN(Cc3ccccc3)Cc3ccccc3)nc2n(C)c1=O,0.329%
3,CCOc1ccc(NC2=CC(=O)CC(c3ccco3)C2)cc1 (stereo not drawn),4.97%
4,COC(=O)[C@H]1C[C@H]1[C@@H](NC(=O)c1ccc[nH]1)c1ccccc1,2.75%
5,CCOC(=O)Nc1ccc2c(c1)N(C(=O)CN1CCN(C)CC1)c1ccccc1CC2.Cl,10.3%
6,Cc1ccc(S(=O)(=O)NNC(=O)c2ccccc2O)cc1,9.41%
7,O=C(COCc1ccccc1)N[C@@H](Cc1ccc(O)cc1)C(=O)O,6.13%
8,CCN1CCN(c2nc3c(c(=O)n(C)c(=O)n3C)n2Cc2cccc3ccccc23)CC1,-3.45%
9,CCC(C)NS(=O)(=O)c1ccc(NC(=O)C(Sc2ccccc2)c2ccccc2)cc1 (stereo not drawn),1.63%
10,CCOC(=O)c1cc2c(=O)n3cccc(C)c3nc2n(CCCOC)c1=NC(=O)c1cccnc1,-65.4%
11,Cc1cc(=O)n2c3ccccc3n(C)c2n1,12.3%
12,CCOC(=O)c1ccccc1NC(=O)COC(=O)CN1C(=O)C2CC=CCC2C1=O (stereo not drawn),4.2%
13,O=C(CCC(=O)Nc1ccc(F)cc1)N/N=C/c1cccnc1,14%
14,COc1ccc(CNC(=O)c2cc(C3CC3)on2)cc1,15.1%
15,O=C(NC1CCCc2c1cnn2-c1ccccc1F)c1ccccc1N1CCOCC1 (stereo not drawn),-11.9%
16,CCC(c1ccc(O)cc1)C(CC)c1ccc(O)cc1 (stereo not drawn),7.79%
17,O=C(c1ccc(COc2ccc(F)cc2)o1)n1cccn1,10.7%
18,CCOC(=O)Cc1csc(NC(=O)CSc2nnc(C3CC3)n2C)n1,5.97%
19,COc1cccc(C=O)c1OCCN1C(=O)c2ccccc2C1=O,11.9%
20,O=C(NCc1cccnc1)c1cccc(NC(=O)c2ccco2)c1,-1.61%
21,COc1ccc(C(=O)OCC(=O)NC(=O)NC(C)C)cc1OC,15.5%
